From PMC4336329 (PLoS ONE, 2015)
About 14,000 (4.5%) of roughly 310,000 compounds showed an effect of 50% or more. The effect is printed as a negative number. The list shows a part of the results.

target: human ether-à-go-go-related gene (hERG) potassium channel (human, UniProt Q12809); test: primary screen, population patch clamp on CHO cells stably expressing hERG
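Note: peak tail current of the secondary pulse compared with the same well before compound.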

Chain of human ether-à-go-go-related gene (hERG) potassium channel (Q12809 whole entry, looked up): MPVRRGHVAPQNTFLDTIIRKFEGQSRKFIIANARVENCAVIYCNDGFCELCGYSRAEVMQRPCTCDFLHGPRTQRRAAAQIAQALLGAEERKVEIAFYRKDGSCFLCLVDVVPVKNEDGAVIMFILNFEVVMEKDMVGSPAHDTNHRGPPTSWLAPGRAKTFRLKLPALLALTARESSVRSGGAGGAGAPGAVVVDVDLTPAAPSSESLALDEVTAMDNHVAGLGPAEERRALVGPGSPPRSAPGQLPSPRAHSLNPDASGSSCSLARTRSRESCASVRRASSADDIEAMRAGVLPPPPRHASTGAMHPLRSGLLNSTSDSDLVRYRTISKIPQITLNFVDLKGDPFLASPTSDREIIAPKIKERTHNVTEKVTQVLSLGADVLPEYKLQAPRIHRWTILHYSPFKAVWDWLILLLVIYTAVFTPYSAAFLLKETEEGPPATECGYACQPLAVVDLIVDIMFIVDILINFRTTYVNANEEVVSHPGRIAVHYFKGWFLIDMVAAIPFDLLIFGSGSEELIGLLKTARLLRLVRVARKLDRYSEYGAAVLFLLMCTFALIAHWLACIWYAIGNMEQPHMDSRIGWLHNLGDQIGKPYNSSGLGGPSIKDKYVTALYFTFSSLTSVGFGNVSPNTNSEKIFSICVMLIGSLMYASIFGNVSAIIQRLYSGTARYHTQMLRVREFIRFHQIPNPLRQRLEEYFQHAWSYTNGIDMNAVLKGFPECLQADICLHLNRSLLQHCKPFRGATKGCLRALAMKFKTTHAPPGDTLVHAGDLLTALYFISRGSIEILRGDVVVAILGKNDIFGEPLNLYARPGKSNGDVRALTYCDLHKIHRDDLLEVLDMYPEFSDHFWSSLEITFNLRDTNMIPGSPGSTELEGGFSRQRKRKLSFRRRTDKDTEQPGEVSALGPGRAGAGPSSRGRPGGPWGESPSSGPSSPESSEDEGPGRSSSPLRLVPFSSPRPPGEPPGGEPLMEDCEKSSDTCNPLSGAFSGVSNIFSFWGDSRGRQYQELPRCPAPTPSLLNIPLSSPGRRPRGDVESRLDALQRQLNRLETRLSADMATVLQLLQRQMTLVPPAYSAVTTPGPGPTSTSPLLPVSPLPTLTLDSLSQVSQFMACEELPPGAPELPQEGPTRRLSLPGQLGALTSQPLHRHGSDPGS

| SMILES | hERG current change (%, negative = inhibition) at 10uM [%] |
| --- | --- |
| Nc1cc(S(=O)(=O)Nc2ccccc2Cl)ccc1N1CCOCC1 | -4.06 |
| O=C(CNC(=O)c1ccc(Br)o1)NC12CC3CC(CC(C3)C1)C2 | 6.39 |
| COc1ccc(N2CCN(C(=O)CCNS(=O)(=O)c3ccccc3)CC2)cc1 | -4.25 |
| Cc1ccc(NCN2C(=O)C3C4CCC(C4)C3C2=O)cc1 (stereo not shown) | 12 |
| CCOc1oc(-c2ccc(OC)cc2)nc1C(F)(F)F | -1.8 |
| Cc1ccc(S(=O)(=O)N(C)C)cc1NC(=O)C1CCCN(C(=O)c2ccc(Cl)cc2)C1 (stereo not shown) | -22.2 |
| Cc1cccnc1NC(=O)CNC(=O)c1sc2ccccc2c1Cl | -0.683 |
| CC1Cc2cc(/C(O)=C3/C(=O)C(=O)N(CCN4CCOCC4)C3c3ccc([N+](=O)[O-])cc3)ccc2O1 (stereo not shown) | -5.63 |
| O=C(O)C(=O)O.O=S(=O)(c1cccc(Cl)c1Cl)N1CCN(C(=S)NCCCN2CCOCC2)CC1 | -19.7 |
| CCN1CCN(c2ccc(S(=O)(=O)N3CCCCC3)cc2NC(=O)c2cccc(C)c2)CC1 | -37.4 |
| COc1ccc(S(=O)(=O)Nc2cccc(-n3cnnn3)c2)cc1 | 1.11 |
| CCN1CCN(C(=O)CN(C)S(=O)(=O)c2ccc(OC)c(C)c2)CC1 | -13.6 |
| COc1ccccc1C1NC(=O)NC(C)=C1C(C)=O (stereo not shown) | -13.8 |
| Nc1cc(=O)[nH]c(SCC(=O)N2CCN(S(=O)(=O)c3ccc4ccccc4c3)CC2)n1 | 12.6 |
| Cc1ccccc1-c1nc(S(=O)(=O)c2ccc(Cl)cc2)c(NCCN2CCOCC2)o1 | -20.2 |
| COc1ccc(CNC(=O)C2CCN(C(=O)c3cccc(Cl)c3)CC2)cc1 | -44.9 |
| CC1=CC(=O)C=C(C)C1=NOc1ccc([N+](=O)[O-])cc1 | -3.45 |
| C=C(C)C(=O)Nc1cccc(C2=NOC3(C2)C[C@@H](C(N)=O)N(C(=O)C2(C)CC2)C3)c1 (stereo partly shown) | 5.65 |
| COC1=Cc2c(ccc3ccc(=O)oc23)OC1(C)C | 2.36 |
| O=C1COC(c2ccccc2)=CN1Cc1ccccc1 | -4.61 |
| O=C(O)Cc1nn(Cc2ccc(Cl)cc2)c(=O)c2ccccc12 | 20.6 |
| CC1=C(C(=O)Nc2cccc(C(=O)N3CCN(c4cccc(C(F)(F)F)c4)CC3)c2)SCCO1 | -11 |

| SMILES | hERG current change (%, negative = inhibition) at 10uM [%] |
| --- | --- |
| COc1ccc(Br)cc1/C=N/NC(=O)c1cccc(S(=O)(=O)N2CCOCC2)c1 | 11.6 |
| CN1C(=O)COc2c(C(=O)NC3CN4CCC3CC4)cc(Cl)cc21.Cl (stereo not shown) | -1.33 |
| CCN1C(=O)C2(C(C(=O)c3cc4ccccc4o3)=C(O)C(=O)N2CCCN(C)C)c2ccccc21 (stereo not shown) | 5.25 |
| COc1ccc(C(=O)CSc2nc(-c3ccccn3)nc(C)c2Cl)cc1 | 6.42 |
| CC(CC(=O)O)CC1=NS(=O)(=O)c2ccccc2N1 (stereo not shown) | 16.2 |
| COc1cccc(C2(O)CCN(C(=O)C3CCC3)CC2)c1 | 22.4 |
| Cn1c(=O)c2nncnc2n(C)c1=O | 4.62 |
| CCn1cc(C(=O)Nc2cccc(NC(C)=O)c2)c2cc(OC)c(OC)cc2c1=O | 10.3 |
| COCc1ccc(C(=O)N2CCCC(C(=O)c3cccc(C(F)(F)F)c3)C2)o1 (stereo not shown) | -0.276 |
| CC1(C)O[C@H]2CC(=O)OC[C@@]23C1CC(=O)[C@]1(C)C3CC[C@@]2(C)[C@H](c3ccoc3)OC(=O)[C@H]3O[C@]321 (stereo partly shown) | -10.6 |
| COc1ccc(C(=O)N/N=C(\C)c2ccccn2)cc1OC | -17.2 |
| COc1ccc2nc(NC(=O)c3cccc(-c4cc5ccccc5oc4=O)c3)sc2c1 | 5.56 |
| COc1ccc(NC(=O)CSc2ccc([N+](=O)[O-])cc2)cc1S(=O)(=O)N1CCOCC1 | -38.5 |
| N[C@H](CSCc1ccccc1)C(=O)Nc1ccc([N+](=O)[O-])cc1 | -23.9 |
| COC(=O)c1ccc(CN(c2ccccc2OC)S(=O)(=O)c2cccs2)o1 | -17.7 |
| NC(=O)c1cc(S(=O)(=O)N2CCCC2)ccc1OCc1ccc(F)cc1 | 11.6 |
| N/C(=N\OC(=O)Nc1cccc(C(F)(F)F)c1)c1ccno1 | 4.25 |
| CCOC(=O)C1(CCc2ccccc2)CCN(Cc2csc(C(C)=O)c2)CC1 | -74.8 |
| C=CCN1C(=O)C2(C(C(=O)c3ccc(C)o3)=C(O)C(=O)N2CCCN2CCOCC2)c2ccccc21 (stereo not shown) | 3.04 |
| N#C/C(=C\c1cccc(OCC(=O)O)c1)c1nc2ccccc2[nH]1 | 19.6 |
| O=C(COC(=O)C1=COCCO1)Nc1ccc([N+](=O)[O-])cc1C(F)(F)F | 1.36 |
| COc1ccccc1NC(=O)c1cc2cc(Br)ccc2cc1O | 22.9 |

| SMILES | hERG current change (%, negative = inhibition) at 10uM [%] |
| --- | --- |
| CC(=O)c1c(C)nc(-c2ccc(Cl)cc2)nc1NC(=O)C(C)C | -9.25 |
| C=CCn1c(SCCN2CCCC2)nc2c([nH]c3ccccc32)c1=O | -71.7 |
| O=C(O)CCN=CC1=C(O)CC(c2ccccc2)CC1=O (stereo not shown) | 3.13 |
| CCn1c(SCC(=O)NCC(=O)Nc2ccc(F)cc2)nnc1-c1cccs1 | -25.1 |
| COc1ccc(C(=O)Cn2nnc(-c3ccccc3NC(=O)C3CCCCC3)n2)cc1 | 2.23 |
| CC1CCc2sc(C(=O)NNS(=O)(=O)c3ccc(F)c(F)c3F)cc2C1 (stereo not shown) | -4.34 |
| Cc1ccc(C(=O)N2CCN(c3ncccn3)CC2)o1 | 13.4 |
| CCCc1cc(C(=O)Nc2cc(C)on2)no1 | 12.8 |
| CCCC(=O)Nc1ccc(C(=O)NNC(=O)c2cccc([N+](=O)[O-])c2)cc1 | 14.5 |
| COc1ccc(OC)c(-c2cc(C(=O)NC3CCCC3)c3ccccc3n2)c1 | -46.1 |
| Cc1cc(C(=O)NC2Cc3ccccc3C2)c(C)o1 | 10.9 |
| CCOC(=O)c1ccc(NS(=O)(=O)c2ccc(-c3coc(C)n3)cc2)cc1 | 24.2 |
| CC(Cl)C(=O)NNc1cccc(Cl)n1 (stereo not shown) | 21.8 |
| Cc1cccc(C)c1OCc1cc(C(=O)N2CCN(Cc3nccn3C)CC2)no1 | -44.1 |
| COc1cccc2c(=O)n(CC(=O)Nc3ccc(F)cc3)ccc12 | 12.9 |
| S=c1nc(-c2ccccc2)[nH]c2ccc(Br)cc12 | 9.58 |
| CC1CN(C(=O)COC(=O)c2ccc(NC(=O)CC#N)cc2)CC(C)O1 (stereo not shown) | 11 |
| OCC(CO)(CO)N=Cc1cc(Br)ccc1O | 4.89 |
| CN1CCN(CC#CCC(O)(c2ccccc2)C2CCCC2)CC1.Cl (stereo not shown) | -14.8 |
| COc1ccc(CN2CC(C(=O)NC3CCCCC3)CC2=O)cc1 (stereo not shown) | 7.3 |
| Cn1cccc1/C=N/NC(=O)c1cc2ccccc2cc1O | 0.187 |
| CCOc1ccc(-n2c(C)cc(/C=C3/C(=N)N4C(=NC3=O)SN=C4S(C)(=O)=O)c2C)cc1 | -53.4 |

| SMILES | hERG current change (%, negative = inhibition) at 10uM [%] |
| --- | --- |
| O=C1c2ccccc2C(=O)N1CCCP(=O)(O)CCc1ccccc1 | 28.9 |
| Cc1cc(C)cc(N2C(=O)C3C4C=CC(C4)C3C2=O)c1 (stereo not shown) | 4.28 |
| COc1cc(C)cc2oc(=O)c(CC(=O)N3CCN(C(=O)C4COc5ccccc5O4)CC3)c(C)c12 (stereo not shown) | -53.9 |
| COc1ccccc1C(=O)N1C(CC(=O)Nc2cc(Cl)ccc2C)C(=O)NC2CCCCC21 (stereo not shown) | 5.59 |
| Cc1c(C(=O)c2ccccc2)c2ccccn2c1CCC#N | -39.8 |
| CCOc1ccc(S(=O)(=O)NCCC(=O)NCc2ccc(OC)c(OC)c2)cc1 | -12.9 |
| CSc1ccc(CNC(=O)CCn2ccc3cc(S(=O)(=O)N4CCCC4)ccc32)cc1 | -31.7 |
| COC(=O)CCc1c(C)c(C(=O)c2ccco2)c2ccccn12 | -7.35 |
| CCOC(=O)c1c(C)[nH]c(C)c1C(=O)CSc1nnc(-c2cc(OC)c(OC)c(OC)c2)o1 | 14.4 |
| C/C=C/C(=O)OCC(=O)Nc1cccc(S(=O)(=O)NC2=NCCCCC2)c1 | -2.31 |
| Cc1ccc(S(=O)(=O)NN2C(=O)c3ccccc3NC2c2cccc(O)c2)cc1 (stereo not shown) | -7.34 |
| CCCCNC(=O)NNC(=O)c1ccco1 | -2.05 |
| Cc1cccc(C(=O)Nc2ccc(C(=O)Nc3ccc(O)cc3)cc2)c1 | 12.5 |
| COc1ccc(C(=O)N/C(=C\c2cn(C)c3ccccc23)C(=O)NCCCn2ccnc2)cc1OC | 13.2 |
| CCOC(=O)NC(=O)c1cn(C(CC)CO)c(=O)[nH]c1=O (stereo not shown) | 24.8 |
| CCOc1ccc(Oc2nc(NCC(C)C)nc(OC)n2)nn1 | 7.06 |
| O=C(C1CCOCC1)N1CCCC(N2CCN(c3ccc(F)cc3)CC2)C1 (stereo not shown) | -3.64 |
| [N-]=[N+]=NC[C@H](c1ccccc1)N1CCN(Cc2ccccc2)CCC1=O | -0.754 |
| COc1ccc2[nH]c(=O)c(CN(CCO)C(=O)NCc3ccccc3)cc2c1 | -5.1 |
